Assay results taken from PMC13083723 (Patterns, 2026).
Hit rate of the full screen: of about 5,400 compounds, about 190 (3.5%) showed an effect of 50% or more. The list shows a part of the results.

These compounds were tested on Vero-E6 (assay: primary screen, phospholipidosis by LipidTOX staining; higher = more effect of the substance). Conditions: 10 µM.
How it was run: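 Drug-induced phospholipidosis detected with HCS LipidTOX Red reagent in Vero-E6 cells. Compounds tested at 10 μM, with amiodarone (10 μM) as positive control and DMSO (0.1 v/v %) as vehicle.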

SMILES	result_ITMP
C/C(=N\c1ccccc1N)c1c(C)cc(=O)n(O)c1O	1.39%
CN1CCN(C(=O)c2nc3ccc(Cl)cc3[nH]2)CC1	-5.89%
COc1ccc(Br)cc1S(=O)(=O)NC(=O)/C=C/c1ccccc1Cc1ccc2ccccc2c1	-0.88%
CN1[C@@H]2C[C@@H](O)C[C@H]1[C@@H]1O[C@@H]12	17.2%
CCO/N=C(/C(=O)NC1C(=O)N2C(C(=O)O)=C(Sc3nc(-c4cc[n+](C)cc4)cs3)CS[C@H]12)c1nsc(NP(=O)(O)O)n1 (stereo partly shown)	-4.85%
COc1cccc(OC)c1C(=O)N[C@@H]1C(=O)N2[C@@H]1SC(C)(C)[C@@H]2C(=O)[O-]	-9.2%
[Cl][Ru]([Cl])([Cl])[Cl].c1ccc2[nH]ncc2c1.c1ccc2[nH]ncc2c1	-2.33%
CCCCC(CC)COc1ccc(-c2nc(-c3ccc(OC)cc3)nc(-c3ccc(OCC(CC)CCCC)cc3O)n2)c(O)c1 (stereo not shown)	-4.63%
NS(=O)(=O)NCc1csc2ccccc12	3.3%
N#Cc1c(Oc2ccc(F)c(NC(=O)Cc3cccc(C(F)(F)F)c3)c2)ccc2nc(NC(=O)C3CC3)sc12	-9.62%
Cc1cc(OCc2nc(-c3ccccc3Cl)cs2)ccc1OCC(=O)O	-3.62%
CN1CCCN=C1/C=C/c1cccs1	-2.17%
C[C@@H]([C@H](C)O)[C@H](N)C(=O)O	0.75%
O=c1cc[nH]c(=O)[nH]1	-8.91%
CCOC(=O)N1c2ccc(C(F)(F)F)cc2[C@@H](N(Cc2cc(C(F)(F)F)cc(C(F)(F)F)c2)C(=O)OC)C[C@H]1CC	-11.2%
OC[C@H]1O[C@@H](O[C@@H]2[C@@H](CO)O[C@](O)(CO)[C@H]2O)[C@H](O)[C@@H](O)[C@H]1O	-3.22%
Cc1ccc(C(=O)Nc2cccc(C(F)(F)F)c2)cc1Nc1nc(-c2cccnc2)nc2c1cnn2C	-4.6%
NC(=O)C(c1ccccc1)(c1ccc(F)cc1)c1ccc(F)cc1	-0.04%
Nc1ccn([C@H]2CO[C@@H](CO)S2)c(=O)n1	-0.01%
Cc1c(N)cccc1Cn1ccc(OCCc2cccs2)cc1=O	-2.44%
COc1ccc(-c2cc(=O)c3c(OC)c(OC)c(OC)c(OC)c3o2)cc1OC	-2.5%
c1ccc(Oc2nc(NC3CCCCC3)c3nc[nH]c3n2)cc1	-2.48%
Cc1cccc(-c2nn3c(c2-c2ccnc4ccc(C(N)=O)cc24)CCC3)n1	-5.5%
O=c1n(Cl)c(=O)n(Cl)c(=O)n1Cl	-3.7%
O=C(Nc1cccnc1)N1CCC(Cc2cccc(Oc3ccc(C(F)(F)F)cn3)c2)CC1	-6.14%
